Values joined by “and” are separate entries in the source; they are usually repeats but may differ in a detail not shown here. Identical values can stand only once. Inconclusive means that the source gave no clear call. Such entries were picked first, then a sample of the others. For some assays here: A potency beside an inconclusive call is a rough fit, not a confirmed value. For some assays here: “Side channel” marks fits to a control or component signal instead of the main read-out. Active and inactive are the calls of the source. Unless noted, calls follow the shape of the dose curve; as a rule, active = well fitted curve in the direction sought with a large enough effect; inconclusive = small, poorly fitted or top-dose-only effect, or another doubt; inactive = no such curve, though single readings can be large; an effect the other way counts as inactive or inconclusive.
How the values were obtained:
[1] = Cell Viability - H-4-II-E (AID 543);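 also: cells exposed to compound for 40 hours; nearly all actives have a fitted effect of over 35% in size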; also: potency is read from the fitted curve at half-maximal effect
Summary of the method: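 Cells seeded at 1500 per well and rested 5 hr; compounds added; 40 hr incubation at 37 °C; CellTiter-Glo added, 20 min at room temperature; luminescence read. Hill-equation fits gave AC50.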

[2] = Cellular Toxicity (caspase-3) Renal Proximal Tubule (AID 667); details: renal proximal tubule cells, primary cells freshly taken from rat, solvent-only wells 0%, staurosporine 100%; at 91.7 µM (top of the series);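 also: cells exposed to compound for 16 hours at 37 °C before detection; 0% = DMSO basal and 100% = 10 µM staurosporine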
Summary of the method: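 Caspase 3/7 activation measured by luminescent aminoluciferin release in primary rat proximal tubule cells after 16 hr compound exposure at 37 °C. AC50 from Hill-fitted concentration-response, scaled between DMSO and 10 uM staurosporine.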

[3] = Cell Viability - LYMP2-001 (AID 921); details: LYMP2-001 lymphoblastoid cell viability; activity change, negative = cytotoxic: at 92.2 µM (top of the series);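 also: 0% = DMSO only and full inhibition = tetraoctylammonium bromide control wells; nearly all actives have a fitted effect of over 70% in size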
Summary of the method: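 Cellular ATP loss read by luciferase luminescence after 24 h compound exposure at 37 C in complete medium. LYMP2-001 lymphoblastoid cells, 2500/well; qHTS concentration-response data fitted with Hill equation for AC50.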

[4] = MultiTox-Fluor Cytotoxicity Assay - LYMP1-001 - Live Cells (AID 947); also: potency is read from the fitted curve at half-maximal effect
[5] = biological target: Glucocorticoid receptor (Homo sapiens) (UniProt P04150); experiment: qHTS assay for small molecule agonists of glucocorticoid receptor signaling (AID 588532; active = well fitted curve in the direction sought with a large enough effect in the signal ratio, with a control signal flat; inconclusive = small, poorly fitted or top-dose-only effect, or a change in a side signal; inactive = no such curve, though single readings can be large or run the other way; the % refers to the signal ratio; also: potency is read from the fitted curve at half-maximal effect;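 as to activation: 100% = dexamethasone at 0.1 µM and 0% = DMSO only wells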); details: HeLa MMTV-bla, beta-lactamase ratio, agonist, 18 h; activation: hits give high values, percent of dexamethasone control, DMSO zero
Summary of the method: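 Titration series, up to 92 uM, applied to GRE-bla HeLa cells for 18 h at 37 C. Detection by CCF4 FRET substrate after 2 h at RT.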

[6] = biological target: Peroxisome proliferator-activated receptor delta (Homo sapiens) (UniProt Q03181); experiment: qHTS assay for small molecule agonists of peroxisome proliferator-activated receptor delta signaling (AID 588534; calls by dose curve;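 also: 0% = DMSO basal wells and 100% = positive control agonist at 10 µM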); details: HEK293T PPARdelta-UAS-bla, beta-lactamase ratio, 18 h; activation: at 76.7 µM (top of the series)
UniProt Q03181, sequence (Q03181 whole entry, looked up): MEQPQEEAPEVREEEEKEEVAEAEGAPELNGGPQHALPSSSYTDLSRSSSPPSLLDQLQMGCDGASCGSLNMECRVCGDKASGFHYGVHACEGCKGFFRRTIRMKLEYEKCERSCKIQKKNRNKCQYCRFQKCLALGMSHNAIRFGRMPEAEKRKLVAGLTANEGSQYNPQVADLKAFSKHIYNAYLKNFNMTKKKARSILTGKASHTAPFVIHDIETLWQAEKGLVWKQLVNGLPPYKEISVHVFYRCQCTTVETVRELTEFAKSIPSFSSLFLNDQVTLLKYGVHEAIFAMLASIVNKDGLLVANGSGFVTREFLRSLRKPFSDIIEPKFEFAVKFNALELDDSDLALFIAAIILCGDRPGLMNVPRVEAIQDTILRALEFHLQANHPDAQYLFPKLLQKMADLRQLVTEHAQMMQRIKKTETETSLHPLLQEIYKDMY
Summary of the method: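 Agonist-mode qHTS; reporter cells, 5 hrs 37 C pre-incubation; compound titration, 18 hrs 37 C; CCF4 dye, 2 hrs RT; fluorescence read. EC50/efficacy via Hill fit.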

[7] = biological target: Peroxisome proliferator-activated receptor delta (Homo sapiens) (UniProt Q03181); experiment: qHTS assay for small molecule antagonists of peroxisome proliferator-activated receptor delta signaling (AID 588535; active = well fitted inhibition curve with a large enough effect in the signal ratio, with a control signal flat, not every such curve was filed as active; inconclusive = small, poorly fitted or top-dose-only effect, or effect the other way, or a change in a side signal; inactive = no such curve, though single readings can be large or run the other way; the % refers to the signal ratio; also: potency is read from the fitted curve at half-maximal effect); details: HEK293T PPARd-UAS-bla, beta-lactamase FRET ratio, 18 h; activity change, negative = inhibition: at 76.7 µM (top of the series) unless noted
Summary of the method: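 Inhibition of PPAR-delta response element-driven beta-lactamase expression is measured in HEK293T cells exposed to a compound titration series for 18 hrs at 37 C. Half-maximal inhibition comes from Hill equation fitting.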

[8] = biological target: Vitamin D3 receptor (Homo sapiens) (UniProt P11473); experiment: qHTS assay for small molecule antagonists of vitamin D receptor signaling (AID 588541; calls by dose curve;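 also: receptor activated by calcitriol during compound treatment; % is scaled to controls: 0 for no effect and ±100 for the full control effect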); details: HEK293T VDR-UAS-bla, beta-lactamase ratio, antagonist mode; activity change, negative = inhibition: at 76.7 µM (top of the series)
[9] = biological target: Retinoic acid receptor RXR-alpha (Homo sapiens) (UniProt P19793); experiment: qHTS assay for small molecule antagonists of retinoid X receptor alpha signaling (AID 588546; active = well fitted inhibition curve with a large enough effect in the signal ratio, with a control signal flat, not every such curve was filed as active; inconclusive = small, poorly fitted or top-dose-only effect, or effect the other way, or a change in a side signal; inactive = no such curve, though single readings can be large or run the other way; the % refers to the signal ratio;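 also: cells stimulated with 9-cis-retinoic acid as agonist; % is scaled to controls: 0 for no effect and ±100 for the full control effect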); details: HEK293T RXRa-UAS-bla, beta-lactamase ratio, antagonist mode
UniProt P19793, sequence (P19793 whole entry, looked up): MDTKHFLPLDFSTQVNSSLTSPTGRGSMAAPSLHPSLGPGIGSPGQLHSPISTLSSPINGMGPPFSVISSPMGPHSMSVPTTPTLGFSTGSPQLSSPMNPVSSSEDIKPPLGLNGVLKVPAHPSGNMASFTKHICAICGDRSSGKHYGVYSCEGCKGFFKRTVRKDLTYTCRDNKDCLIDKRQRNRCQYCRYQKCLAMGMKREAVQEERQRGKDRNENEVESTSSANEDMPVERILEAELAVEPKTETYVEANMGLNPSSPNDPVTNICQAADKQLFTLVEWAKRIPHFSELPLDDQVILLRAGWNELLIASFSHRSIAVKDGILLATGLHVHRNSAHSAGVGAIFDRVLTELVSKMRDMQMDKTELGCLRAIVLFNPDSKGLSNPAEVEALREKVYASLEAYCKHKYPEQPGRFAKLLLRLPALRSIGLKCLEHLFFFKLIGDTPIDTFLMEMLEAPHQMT
Summary of the method: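 Beta-lactamase reporter inhibition, read as CCF4 fluorescence ratio (ex 405, em 460/530 nm) after 2 h at RT. HEK293T UAS-bla cells, 2500/well, were stimulated with 9-cis-RA at 500 or 100 nM final alongside test compound for 18 h at 37 C.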

[10] = biological target: Voltage-gated inwardly rectifying potassium channel KCNH2 (Homo sapiens) (UniProt Q12809); experiment: qHTS Assay for Small Molecule Inhibitors of the Human hERG Channel Activity (AID 588834); details: U2OS BacMam hERG, FluxOR thallium flux fluorescence; at 92.2 µM (top of the series);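 also: top concentration of the series differs between compounds; % is scaled to controls: 0 for no effect and ±100 for the full control effect; lower thallium flux fluorescence means stronger hERG block; nearly all actives have a fitted effect of over 50% in size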
UniProt Q12809, sequence (Q12809 whole entry, looked up): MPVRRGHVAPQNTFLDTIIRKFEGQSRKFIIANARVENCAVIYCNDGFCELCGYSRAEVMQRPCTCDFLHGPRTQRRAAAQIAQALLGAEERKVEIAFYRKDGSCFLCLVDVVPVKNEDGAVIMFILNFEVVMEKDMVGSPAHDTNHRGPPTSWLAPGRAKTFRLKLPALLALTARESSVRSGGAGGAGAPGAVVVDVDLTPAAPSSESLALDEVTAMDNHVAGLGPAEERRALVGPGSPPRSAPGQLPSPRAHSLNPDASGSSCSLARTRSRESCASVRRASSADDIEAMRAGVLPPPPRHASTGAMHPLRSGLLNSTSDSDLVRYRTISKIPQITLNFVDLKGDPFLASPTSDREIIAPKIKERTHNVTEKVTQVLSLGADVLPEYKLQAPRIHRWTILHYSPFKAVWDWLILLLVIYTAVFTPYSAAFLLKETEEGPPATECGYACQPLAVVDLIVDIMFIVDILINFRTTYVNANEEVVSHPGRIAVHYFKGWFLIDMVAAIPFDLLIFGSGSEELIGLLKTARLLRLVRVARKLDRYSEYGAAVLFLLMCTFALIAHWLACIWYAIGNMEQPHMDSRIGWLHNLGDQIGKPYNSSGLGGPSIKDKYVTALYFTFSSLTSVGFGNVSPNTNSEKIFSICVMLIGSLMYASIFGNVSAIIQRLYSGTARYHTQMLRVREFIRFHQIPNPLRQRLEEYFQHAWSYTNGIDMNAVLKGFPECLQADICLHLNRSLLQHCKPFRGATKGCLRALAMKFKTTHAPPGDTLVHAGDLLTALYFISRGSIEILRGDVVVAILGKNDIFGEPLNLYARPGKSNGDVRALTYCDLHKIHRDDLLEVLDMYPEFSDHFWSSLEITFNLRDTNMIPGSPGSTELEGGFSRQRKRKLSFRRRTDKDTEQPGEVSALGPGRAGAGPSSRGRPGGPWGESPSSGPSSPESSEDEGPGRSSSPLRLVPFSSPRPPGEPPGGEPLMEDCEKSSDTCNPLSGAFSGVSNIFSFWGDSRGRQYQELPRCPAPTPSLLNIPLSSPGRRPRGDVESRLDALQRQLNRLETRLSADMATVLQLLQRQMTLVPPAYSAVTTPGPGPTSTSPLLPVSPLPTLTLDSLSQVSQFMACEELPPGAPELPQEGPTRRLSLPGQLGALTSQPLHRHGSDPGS
Summary of the method: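 hERG block measured as reduced thallium-dye (FluxOR) fluorescence after stimulation buffer addition, read over 2 min. Cells were hERG-BacMam-transduced U2OS exposed to compound ~10 min […]; concentration-response fitted with Hill equation for AC50.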

[11] = qHTS assay for small molecule agonists of the antioxidant response element (ARE) signaling pathway (AID 651741; active = well fitted activation curve with a large enough effect in the signal ratio; inconclusive = small, poorly fitted or top-dose-only effect, or effect the other way, or a change in a side signal; the % refers to the signal ratio; also: potency is read from the fitted curve at half-maximal effect; as to activation: % of control where 0% means no effect); details: HepG2 ARE-bla reporter, beta-lactamase FRET ratio, 16 h; activation: at 96 µM (top of the series) unless noted
Summary of the method: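 Reporter: beta-lactamase under ARE, stably in HepG2. Exposure: 16 h, 37 C, compounds delivered in DMSO by pin tool after 5 h cell preincubation. Readout: FRET substrate fluorescence after 2 h at RT.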

[12] = qHTS assay to identify small molecules that stimulate interleukin-8 (IL-8) secretion (AID 651758; active = well fitted activation curve with a large enough effect in the signal ratio; inconclusive = small, poorly fitted or top-dose-only effect, or effect the other way, or a change in a side signal; the % refers to the signal ratio; also: potency is read from the fitted curve at half-maximal effect; as to activation: 0% is about no effect); details: HTRF ratio (665/615); activation: at 92.2 µM (top of the series)
Summary of the method: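 Quantitative HTS in THP-1 monocytic cells at 2000 cells per well, with 16 hrs compound incubation at 37 C. IL-8 in the medium was then quantified by HTRF immunoassay, read after 1-3 hrs at room temperature.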

[13] = Cell Viability - SH-SY5Y (AID 544); details: SH-SY5Y neuroblastoma cell viability; viability change, negative = cytotoxic: at 92.2 µM (top of the series);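 also: cells exposed to compound for 40 hours; 0% = DMSO alone and -100% = 100 µM tamoxifen; nearly all actives have a fitted effect of over 55% in size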
Summary of the method: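 Cells were plated at 1500 per well and allowed 5 hr at 37 °C. Compounds were added across a concentration range and incubated 40 hr at 37 °C. CellTiter-Glo was added for 20 min at room temperature before luminescence reading.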

[14] = Cell Viability - LYMP1-003 - Assay at 40 hr (AID 964); also: potency is read from the fitted curve at half-maximal effect; nearly all actives have a fitted effect of over 60% in size
Summary of the method: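 Luminescent ATP signal (CellTiter-Glo) served as the viability read-out after 40 hr compound treatment of human lymphoblastoid LYMP1-003 cells at 37 C. Decreases in ATP were fitted with the Hill equation to give AC50.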

[15] = Cell Viability - LYMP2-003 (AID 965);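 also: cells exposed to compounds for 24 h before reading; 0% = DMSO only and full effect = 92 µM tetraoctylammonium bromide; nearly all actives have a fitted effect of over 50% in size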
Summary of the method: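 CellTiter-Glo luminescence quantified ATP loss after 24 h compound treatment of LYMP2-003 lymphoblastoid cells at 37 C. Titration series were fitted with the standard Hill equation to give AC50.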

[16] = Cell Viability - LYMP2-004 (AID 966); details: LYMP2-004 lymphoblastoid cell viability, qHTS; activity change, negative = cytotoxicity: at 92.2 µM (top of the series); also: potency is read from the fitted curve at half-maximal effect; nearly all actives have a fitted effect of over 65% in size
Summary of the method: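 qHTS cytotoxicity: human lymphoblastoid line, 24 hr compound treatment, 37 C, complete medium. Viability read as cellular ATP via luciferase luminescence; tetraoctylammonium bromide served as positive control.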

[17] = Cell Viability - LYMP2-010 (AID 981);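 also: cells exposed to compound for 24 hours at 37 °C; % is scaled to controls: 0 for no effect and ±100 for the full control effect; nearly all actives have a fitted effect of over 55% in size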
Summary of the method: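 Steps: seed 2500 LYMP2-010 cells per well; incubate 5 hr at 37 C; add compound; incubate 24 hr at 37 C; add CellTiter-Glo, wait 30 min at room temperature; read luminescence. Concentration-response fitted to Hill equation for AC50.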

[18] = biological target: Glucocorticoid receptor (Homo sapiens) (UniProt P04150); experiment: qHTS assay for small molecule antagonists of glucocorticoid receptor signaling (AID 588533; active = well fitted inhibition curve with a large enough effect in the signal ratio, with a control signal flat, not every such curve was filed as active; inconclusive = small, poorly fitted or top-dose-only effect, or effect the other way, or a change in a side signal; the % refers to the signal ratio;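 also: cells stimulated with 2 nM dexamethasone as agonist; % is scaled to controls: 0 for no effect and ±100 for the full control effect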); details: HeLa MMTV-bla, GRE beta-lactamase ratio, antagonist mode, 18 h; activity change, negative = inhibition: at 76.8 µM (top of the series) unless noted
[19] = biological target: Peroxisome proliferator-activated receptor gamma (Homo sapiens) (UniProt P37231); experiment: qHTS assay for small molecule agonists of peroxisome proliferator-activated receptor gamma signaling (AID 588536; active = well fitted curve in the direction sought with a large enough effect in the signal ratio, with a control signal flat, not every such curve was filed as active; inconclusive = small, poorly fitted or top-dose-only effect, or effect the other way, or a change in a side signal; inactive = no such curve, though single readings can be large or run the other way; the % refers to the signal ratio; also: potency is read from the fitted curve at half-maximal effect;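 as to activation: 0% = DMSO basal wells and 100% = rosiglitazone at 2 µM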); details: HEK293 PPARg-UAS-bla, beta-lactamase ratio, 16 h; activation: at 76.7 µM (top of the series), percent of rosiglitazone response, DMSO as zero unless noted
Summary of the method: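 Compound treatment: 16 h, 37 C, HEK293 GeneBLAzer cells. Detection: CCF4, 2 h RT. Values: Hill-fit EC50, efficacy as % of 2 uM rosiglitazone.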

[20] = biological target: Peroxisome proliferator-activated receptor gamma (Homo sapiens) (UniProt P37231); experiment: qHTS assay for small molecule antagonists of peroxisome proliferator-activated receptor gamma signaling (AID 588537; active = well fitted inhibition curve with a large enough effect in the signal ratio, with a control signal flat, not every such curve was filed as active; inconclusive = small, poorly fitted or top-dose-only effect, or effect the other way, or a change in a side signal; the % refers to the signal ratio;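 also: reporter cells co-stimulated with 50 nM rosiglitazone agonist during compound treatment; % of control where 0% means no effect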); details: HEK293 PPARg-UAS-bla, beta-lactamase ratio, antagonist mode
Summary of the method: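 Compounds are tested as concentration series for inhibition of rosiglitazone-driven (50 nM) reporter expression in GeneBLAzer PPAR-gamma-UAS-bla HEK293 cells. After 16 h at 37 C, CCF4 substrate is added for 2 h at room temperature and blue/green fluorescence is measured.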

[21] = biological target: Thyroid hormone receptor beta (Homo sapiens) (UniProt P10828); experiment: qHTS assay for small molecule antagonists of thyroid hormone receptor beta signaling (AID 588547; active = well fitted inhibition curve with a large enough effect in the signal ratio, with a control signal flat, not every such curve was filed as active; inconclusive = small, poorly fitted or top-dose-only effect, or effect the other way, or a change in a side signal; the % refers to the signal ratio;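 also: cells stimulated with 0.4 nM T3 agonist during compound exposure; % is scaled to controls: 0 for no effect and ±100 for the full control effect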); details: TR-UAS-bla HEK293, beta-lactamase ratio, antagonist mode, 18 h
UniProt P10828, sequence (P10828 whole entry, looked up): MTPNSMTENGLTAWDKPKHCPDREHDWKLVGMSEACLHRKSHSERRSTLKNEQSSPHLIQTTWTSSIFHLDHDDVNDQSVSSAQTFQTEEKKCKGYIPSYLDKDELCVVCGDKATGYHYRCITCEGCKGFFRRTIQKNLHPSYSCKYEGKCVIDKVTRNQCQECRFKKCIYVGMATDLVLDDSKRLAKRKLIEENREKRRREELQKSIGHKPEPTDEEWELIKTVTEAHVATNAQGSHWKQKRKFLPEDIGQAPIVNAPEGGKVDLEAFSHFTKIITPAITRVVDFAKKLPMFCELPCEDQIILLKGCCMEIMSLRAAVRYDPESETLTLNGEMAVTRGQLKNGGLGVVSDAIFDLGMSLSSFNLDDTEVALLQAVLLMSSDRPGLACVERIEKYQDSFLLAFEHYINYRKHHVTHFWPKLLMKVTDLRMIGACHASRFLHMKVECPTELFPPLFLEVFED
Summary of the method: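 TR-UAS-bla GripTite HEK293 cells in 2% charcoal/dextran FBS medium were preincubated 4 h at 37 C, given compound (0.59 nM to 92 uM) plus 0.4 nM T3 (final) for 18 h, then CCF4 for 2 h at RT; Hill fit gave IC50.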

[22] = qHTS assay for small molecule agonists of the antioxidant response element (ARE) signaling pathway measured by Nrf2-dependant transcriptional activity (AID 720636; active = well fitted curve in the direction sought with a large enough effect in the repeat runs; inconclusive = weak or mixed curves; inactive = no such curve, though single readings can be large; an effect the other way counts as inactive or inconclusive; also: potency is read from the fitted curve at half-maximal effect)
Summary of the method: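 We exposed ARE-luc HepG2 cells, seeded in assay medium with 1% dialyzed FBS and allowed 6 hr to adhere, to test compounds overnight (16 hr, 37 C) before measuring luciferase with ONE-Glo.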

[23] = biological target: Estrogen receptor (Homo sapiens) (UniProt P03372); experiment: qHTS assay for small molecule agonists of estrogen receptor alpha signaling (AID 588514; calls by dose curve;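 also: 0% = vehicle only and 100% = reference agonist; nearly all actives have a fitted effect of over 70% in size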); details: ER-alpha-UAS-bla HEK293, beta-lactamase ratio, 18 h; activation: at 76.8 µM (top of the series), percent of full estradiol response, vehicle zero
UniProt P03372, sequence (P03372 whole entry, looked up): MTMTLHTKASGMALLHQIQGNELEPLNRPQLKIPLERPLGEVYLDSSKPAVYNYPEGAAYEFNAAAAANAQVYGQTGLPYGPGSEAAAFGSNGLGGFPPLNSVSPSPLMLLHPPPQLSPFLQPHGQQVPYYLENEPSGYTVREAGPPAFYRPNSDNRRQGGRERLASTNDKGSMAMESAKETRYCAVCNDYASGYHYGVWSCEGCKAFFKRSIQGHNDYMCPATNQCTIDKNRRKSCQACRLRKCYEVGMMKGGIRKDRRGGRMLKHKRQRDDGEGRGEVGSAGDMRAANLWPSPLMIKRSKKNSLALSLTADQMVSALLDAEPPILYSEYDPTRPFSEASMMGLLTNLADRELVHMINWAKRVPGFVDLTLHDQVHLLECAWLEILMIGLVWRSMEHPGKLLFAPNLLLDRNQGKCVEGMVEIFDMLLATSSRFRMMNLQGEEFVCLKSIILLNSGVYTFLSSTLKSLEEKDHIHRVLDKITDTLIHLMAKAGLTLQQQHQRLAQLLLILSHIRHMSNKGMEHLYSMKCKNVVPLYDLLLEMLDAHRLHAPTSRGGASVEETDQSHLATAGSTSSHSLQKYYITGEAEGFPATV
Summary of the method: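 Efficacy is expressed against 20 nM 17-beta-estradiol (100%) and DMSO basal (0%); EC50 from Hill equation. Assay: beta-lactamase reporter in ER-alpha-UAS-bla HEK 293 cells, 18 h compound incubation, CCF4 detection.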

[24] = qHTS assay for small molecule disruptors of the mitochondrial membrane potential - 1 hr assay (AID 651754; calls by dose curve; also: potency is read from the fitted curve at half-maximal effect; nearly all actives have a fitted effect of over 35% in size); details: ratio change, negative = depolarisation: at 92.2 µM (top of the series)
Summary of the method: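 Loss of mitochondrial potential shifts the cationic dye from red mitochondrial aggregates to green cytoplasmic monomers. Cells (HepG2) are treated with compound for 1 hr before a 30 min dye incubation at 37C.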

[25] = biological target: Tumor necrosis factor (Homo sapiens) (UniProt P01375); experiment: qHTS assay to identify small molecules that stimulate Tumor Necrosis Factor-alpha (TNF-alpha) secretion (AID 651757; active = well fitted curve in the direction sought with a large enough effect in the signal ratio; inconclusive = small, poorly fitted or top-dose-only effect, or a change in a side signal; inactive = no such curve, though single readings can be large or run the other way; the % refers to the signal ratio; also: 0% is about no effect); details: Human cells, HTRF 665/615 ratio; activation (TNF-alpha secretion): at 92.2 µM (top of the series)
UniProt P01375, sequence (P01375 whole entry, looked up): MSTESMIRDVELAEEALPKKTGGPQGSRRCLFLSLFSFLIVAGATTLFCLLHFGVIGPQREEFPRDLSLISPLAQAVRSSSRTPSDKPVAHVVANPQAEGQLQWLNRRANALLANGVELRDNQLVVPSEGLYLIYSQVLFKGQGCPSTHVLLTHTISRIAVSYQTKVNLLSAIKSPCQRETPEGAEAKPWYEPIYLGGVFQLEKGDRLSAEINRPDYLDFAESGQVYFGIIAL
Summary of the method: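 Human monocytic THP-1 cells are plated, treated with compound and held at 37 C for 17 hrs. Labeled anti-TNF-alpha antibody mixture is then added; after 3 hr at room temperature, TR-FRET signal reports secreted TNF-alpha.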

[26] = Cell Viability - LYMP2-005 (AID 967);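 also: plate controls were DMSO only for no effect and 92 µM tetraoctylammonium bromide control for full effect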
Summary of the method: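 LYMP2-005 human lymphoblastoid cells (2500/well) were treated with compounds for 24 h at 37 C. Intracellular ATP was then measured by CellTiter-Glo luminescence after 30 min at room temperature. AC50 values came from Hill-equation fits of qHTS concentration-response data.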

[27] = biological target: Bile acid receptor (Homo sapiens) (UniProt Q96RI1); experiment: qHTS assay for small molecule antagonists of farnesoid X receptor signaling (AID 588526; calls by dose curve; also: % is scaled to controls: 0 for no effect and ±100 for the full control effect); details: HEK293T FXR-UAS-bla, beta-lactamase ratio, antagonist mode; activity change, negative = inhibition: at 76.7 µM (top of the series)
UniProt Q96RI1, sequence (Q96RI1 whole entry, looked up): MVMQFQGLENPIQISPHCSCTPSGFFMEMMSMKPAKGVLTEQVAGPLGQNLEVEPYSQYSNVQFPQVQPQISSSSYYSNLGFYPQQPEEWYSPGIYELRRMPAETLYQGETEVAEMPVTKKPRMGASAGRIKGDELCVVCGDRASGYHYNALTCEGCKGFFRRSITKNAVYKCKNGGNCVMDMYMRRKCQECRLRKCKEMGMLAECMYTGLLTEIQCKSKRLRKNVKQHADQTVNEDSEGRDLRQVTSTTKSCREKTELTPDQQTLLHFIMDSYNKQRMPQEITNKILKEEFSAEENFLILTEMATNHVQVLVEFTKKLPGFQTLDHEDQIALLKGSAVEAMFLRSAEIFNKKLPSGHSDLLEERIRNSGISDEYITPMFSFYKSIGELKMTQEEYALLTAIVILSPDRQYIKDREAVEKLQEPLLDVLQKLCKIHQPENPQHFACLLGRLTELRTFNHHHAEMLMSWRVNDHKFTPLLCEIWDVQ
Summary of the method: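 Concentration-response titrations were fitted to the Hill equation for half-maximal inhibition and maximal response, with data normalised to 50 uM chenodeoxycholic acid and DMSO control wells. Cells: FXR-UAS-bla HEK293T, dialyzed FBS.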

[28] = qHTS assay for small molecule activators of the p53 signaling pathway (AID 651743; active = well fitted activation curve with a large enough effect in the signal ratio, not every such curve was filed as active; inconclusive = small, poorly fitted or top-dose-only effect, or a change in a side signal; the % refers to the signal ratio; also: % of control where 0% means no effect); details: HCT-116 p53RE-bla, beta-lactamase FRET ratio, 16 h; activation: hits give high values
Summary of the method: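 Agonist-mode quantitative HTS in HCT-116 cells carrying a p53-response-element beta-lactamase reporter; 16 h compound treatment at 37 C, then FRET substrate loading for 2 h at room temperature and fluorescence read.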
Tags tell the direction and shape of the fitted curve or compound fluorescence and quenching.

CCOc1ccc(N)cc1
inconclusive: Potency [4] 0.004 µM [rising, full curve, poor fit] | Potency [7] 50.1 µM [side channel, rising, single point] | activity change, negative = inhibition [8] 35.1% | Potency [11] 47.3 µM [activator, partial curve]
inactive: Potency [1] | caspase-3 activation [2] -17.4% | Potency [3] | activation [5] 2.46% | Potency [6] | max response [9] -3.13% | activity change, negative = inhibition [10] -17.8% | Potency [12]

COC(=O)NC(=S)Nc1ccccc1NC(=S)NC(=O)OC
inconclusive: viability change, negative = cytotoxic [13] -59.1% | Potency [14] 50.1 µM [cytotoxic, partial curve] | Potency [16] 0.199 µM [cytotoxic, full curve, poor fit] | activity change, negative = inhibition [18] -37.5% | Potency [19] 39.8 µM [activator, partial curve] | activity, negative = inhibition ([20]; activity, negative = inhibition: at 76.8 µM (top of the series)) -8.83% | Potency [12] 66.8 µM [activator, single point] | Potency [22] 15.4 µM [activator, full curve, poor fit]
inactive: Potency [15] | Potency [17] | activation [5] 7.06% and -4.28% | activity, negative = inhibition ([20]; at 76.8 µM (top of the series)) -7.74% | Potency [8] | activity change % (negative = inhibition) [21] 1.37% and 13.1%

Nc1ccc(-c2ccc(N)cc2)cc1
inactive: Potency [23] | Potency [19] | Potency [11]
inconclusive: Potency [1] 39.8 µM [falling, partial curve] | Potency [24] 42.2 µM [inhibitor, partial curve, poor fit] | activation (TNF-alpha secretion) [25] 1.11% | activation [12] -2.07%

CCOC(=O)CBr
inactive: Potency [1] | Potency [26] | Potency [27] | max response [9] -3.36% | activity change % (negative = inhibition) [21] -6.62% | activation [28] -2.17% | Potency [12]
inconclusive: Potency [5] 3.55 µM [side channel, falling, full curve, poor fit]
